Reference: the supplement of paper PMC9446081
Out of some 39,000 compounds screened, about 220 (0.56%) showed activity. This is one part of the list.

System: Escherichia coli K-12 BW25113
Test: relative growth (OD600 normalised to plate interquartile mean) (fraction); higher = less growth inhibition, active = 0.2 or less
Conditions: 50 µM; LB; incubation time: overnight (16-24 h)
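Also: static incubation at 37 °C against the wild-type strain, values averaged over two biological replicates.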

SMILES | relative growth
O=C(C[C@H]1C[C@H]2c3cc(NC(=O)Nc4ccccc4F)ccc3O[C@H]2[C@@H](CO)O1)NCc1ccc(Oc2ccccc2)cc1 | inactive: 1.01
Cc1noc(C)c1NC(=O)N(C)C[C@H]1OCCCC[C@H](C)Oc2ccc(NC(=O)Nc3ccc4c(c3)OCO4)cc2C(=O)N([C@H](C)CO)C[C@@H]1C | inactive: 1.01
C[C@H](CO)N1C[C@H](C)[C@H](CN(C)S(=O)(=O)c2ccc(F)cc2)Oc2ncc(C#Cc3cccc(F)c3)cc2C1=O | inactive: 1.01
CSc1c(-c2ccc(Cl)cc2)[nH]c2ccccc12 | inactive: 0.981
O=c1cc(-c2ccccc2O)oc2ccc(O)cc12 | inactive: 0.99
CC(C)CC#Cc1ccc2c(c1)O[C@H](CN(C)C(=O)c1cccnc1)[C@@H](C)CN([C@H](C)CO)S2(=O)=O | inactive: 0.991
COCC#Cc1ccc2c(c1)O[C@@H](CN(C)C(=O)C1CCCCC1)[C@@H](C)CN([C@H](C)CO)S2(=O)=O | inactive: 0.999
C[C@@H]1CN([C@@H](C)CO)C(=O)c2cc(NS(C)(=O)=O)ccc2O[C@@H]1CN(C)S(=O)(=O)c1ccc(Cl)cc1 | inactive: 0.997
C[C@@H]1CN([C@@H](C)CO)C(=O)c2cc(NS(C)(=O)=O)ccc2O[C@@H]1CN(C)S(=O)(=O)c1ccc(F)cc1 | inactive: 1.01
COCC#Cc1ccc([C@H]2[C@H](CO)N3C(=O)CN(C(=O)c4cccnc4)C[C@@H]23)cc1 | inactive: 0.996
COCCNC(=O)C[C@H]1CC[C@@H]2[C@H](COC[C@@H](O)CN2C(=O)Nc2ccc3c(c2)OCO3)O1 | inactive: 1.01
COc1cccc(S(=O)(=O)Nc2ccc3c(c2)[C@H]2C[C@H](CC(=O)NC4CCCCC4)O[C@@H](CO)[C@H]2O3)c1 | inactive: 0.985
CC[C@H](C)[C@H]1O[C@]2(C=C[C@@H]1C)C[C@@H]1C[C@@H](C/C=C(\C)[C@@H](O[C@H]3C[C@H](OC)[C@@H](O[C@H]4C[C@H](OC)[C@@H](NC(C)=O)[C@H](C)O4)[C@H](C)O3)[C@@H](C)/C=C/C=C3\CO[C@@H]4[C@H](O)C(C)=C[C@@H](C(=O)O1)[C@]34O)O2 | inactive: 0.925
COC(=O)CCC(=O)CN | inactive: 1.01
COc1ccc(cc1)S(=O)(=O)N1C[C@]2(C1)CN([C@@H](CO)c1c2c2ccc(cc2n1C)OC)C(=O)c1cccnc1 | inactive: 1.01
Cc1noc(C)c1S(=O)(=O)Nc1ccc2c(c1)CC(=O)N([C@@H](C)CO)C[C@@H](C)[C@H](CN(C)Cc1ccc3c(c1)OCO3)O2 | inactive: 1.03
CN1CCN(C(=O)C[C@@H]2CC[C@H]3[C@@H](COC[C@@H](O)CN3Cc3ccc(Oc4ccccc4)cc3)O2)CC1 | inactive: 0.977
CC1(C)S[C@@H]2[C@H](NC(=O)C3(N)CCCCC3)C(=O)N2[C@H]1C(=O)O | inactive: 1
COc1cccc(OC)c1OCCNCCO | inactive: 0.999
Clc1ccc([C@@H](c2ccccc2Cl)C(Cl)Cl)cc1 | inactive: 0.975

SMILES | relative growth
O=C(C[C@H]1CC[C@H](NC(=O)C2CC2)[C@@H](CO)O1)NCCCN1CCOCC1 | inactive: 0.978
CCSC1=C(C#N)C(=O)N[C@@H](CO)S1 | inactive: 0.987
COc1ccc([Si](C)(C)[C@@H]2[C@@H](CC(=O)N3Cc4ccccc4C[C@H]3CO)O[C@]3(C(=O)N(Cc4cccc(N5CCC5=O)c4)c4ccccc43)[C@H]2C)cc1 | inactive: 1.03
COc1ccc(CNC(=O)C[C@@H]2C[C@H]3c4cc(NC(=O)NC5CCCC5)ccc4O[C@H]3[C@@H](CO)O2)cc1 | inactive: 0.998
C[C@@H]1CN([C@H](C)CO)C(=O)c2cc(C#Cc3cccnc3)cnc2O[C@H]1CN(C)S(=O)(=O)c1ccccc1F | inactive: 1
N#C[C@@H]1[C@@H](c2ccc(C#Cc3ccccn3)cc2)[C@H](CO)N1C(=O)CN1CCOCC1 | inactive: 0.988
C[C@@H]1CN([C@@H](C)CO)C(=O)c2cc(NS(=O)(=O)c3ccc(F)cc3)ccc2O[C@@H](C)CCCCO[C@H]1CN(C)Cc1ccc2c(c1)OCO2 | inactive: 1.01
C[C@@H]1CN([C@@H](C)CO)C(=O)c2cc(NC(=O)Cc3cn(C)c4ccccc34)ccc2O[C@@H]1CN(C)C(=O)Nc1cccc2ccccc12 | inactive: 1.02
CC(C)N1CC=C[C@@]23O[C@@H]4C=CCOC(=O)[C@@H]4[C@H]2C(=O)N([C@@H](C)CO)[C@@H]3C1=O | inactive: 0.97
CC(C)(C)[S@](=O)N1Cc2cc(C(=O)NCc3ccccn3)nc(-c3cccc(-c4ccccc4F)c3)c2[C@@H]1CCO | inactive: 1.02
C[C@H](CO)N1C[C@H](C)[C@@H](CN(C)S(=O)(=O)c2ccc(F)cc2)Oc2c(NC(=O)C3CC3)cccc2C1=O | inactive: 0.984
C[C@H](CO)N1C[C@H](C)[C@@H](CN(C)Cc2ccc(-c3ccccc3)cc2)Oc2ccc(NC(=O)Nc3ccc(F)cc3)cc2C1=O | inactive: 0.952
C=C/C=C/[C@@H]1C(=C)CN2[C@H]1[C@H](Cc1ccccc1)OC(=O)[C@@H]2Cc1ccc(-n2cc(-c3cccc(/C=C/C(=O)NO)c3)nn2)cc1 | inactive: 0.999
Cc1ccc(S(=O)(=O)N(c2cccc(-n3cc(CCC(=O)NO)nn3)c2)S(=O)(=O)c2ccc(C)cc2)cc1 | inactive: 0.945
C[C@@H]1CCCCO[C@@H](CN(C)C(=O)Nc2ccc3c(c2)OCO3)[C@H](C)CN([C@@H](C)CO)C(=O)c2cc(NC(=O)c3ccccc3)ccc2O1 | inactive: 1.02
COc1ccc(CN(C)C[C@@H]2OCCCC[C@@H](C)Oc3ccc(NC(=O)Nc4ccc(F)cc4)cc3C(=O)N([C@H](C)CO)C[C@H]2C)cc1 | inactive: 0.988
CC[C@H]1COCCC(=O)N1 | inactive: 0.988
Cc1cc(O)cc(C)c1Cl | inactive: 0.463
C[C@@H]1CN([C@@H](C)CO)C(=O)c2cc(NC(=O)Nc3ccc(F)cc3)ccc2O[C@H]1CN(C)Cc1ccc(C(F)(F)F)cc1 | inactive: 1.06
C[C@H]1CN([C@@H](C)CO)C(=O)Cc2cc(NC(=O)Nc3ccc(C(F)(F)F)cc3)ccc2O[C@H]1CN(C)Cc1ccc(Oc2ccccc2)cc1 | inactive: 1

SMILES | relative growth
C[C@@H]1CN([C@@H](C)CO)C(=O)Cc2cc(NC(=O)Nc3ccc(C(F)(F)F)cc3)ccc2O[C@@H]1CN(C)S(=O)(=O)c1ccc(Cl)cc1 | inactive: 1.04
C[C@@H]1CCCCO[C@H](CN(C)C(=O)Cc2ccccc2)[C@H](C)CN([C@@H](C)CO)C(=O)c2cc(NS(=O)(=O)c3cccs3)ccc2O1 | inactive: 1.02
C[C@@H]1CCCCO[C@@H](CN(C)S(=O)(=O)c2ccccc2)[C@@H](C)CN([C@H](C)CO)C(=O)c2cc(NC(=O)C3CCCCC3)ccc2O1 | inactive: 1.01
Oc1cccc(O)c1 | inactive: 1.09
Cc1noc(C)c1S(=O)(=O)Nc1ccc2c(c1)C(=O)N([C@H](C)CO)C[C@H](C)[C@@H](CN(C)S(C)(=O)=O)OCCCC[C@H](C)O2 | inactive: 0.991
CC(C)CC#Cc1cnc2c(c1)C(=O)N([C@H](C)CO)C[C@H](C)[C@H](CN(C)C(=O)CN1CCOCC1)O2 | inactive: 1.01
C[C@H]1CN([C@@H](C)CO)C(=O)c2cccc(NS(=O)(=O)c3cccs3)c2O[C@H]1CN(C)S(=O)(=O)c1cccs1 | inactive: 0.998
Cc1noc(C)c1NC(=O)N(C)C[C@H]1OCCCC[C@@H](C)Oc2ccc(NS(=O)(=O)c3cccs3)cc2C(=O)N([C@@H](C)CO)C[C@@H]1C | inactive: 0.977
Cc1noc(C)c1S(=O)(=O)Nc1ccc2c(c1)CC(=O)N([C@H](C)CO)C[C@H](C)[C@H](CN(C)Cc1ccc(-c3ccccc3)cc1)O2 | inactive: 1.01
C[C@@H]1CN([C@H](C)CO)C(=O)Cc2cc(NC(=O)NC3CCCCC3)ccc2O[C@@H]1CN(C)Cc1ccc(Cl)c(Cl)c1 | inactive: 0.99
Cc1c(Br)c(=O)n(C)c(=O)n1C | inactive: 0.969
CNC(=O)C[C@H]1CC[C@@H]2[C@H](COC[C@@H](O)CN2C(=O)Nc2ccc3c(c2)OCO3)O1 | inactive: 1
C[C@@H]1CN([C@H](C)CO)C(=O)c2cc(NC(=O)Nc3ccccc3)ccc2O[C@H]1CN(C)Cc1ccc(C(F)(F)F)cc1 | inactive: 1.03
C[C@H](CO)N1C[C@H](C)[C@H](CN(C)S(=O)(=O)c2ccccc2)Oc2ccc(NC(=O)Cc3ccccc3)cc2CC1=O | inactive: 0.987
O=C(CCCCCNC(=O)OCCCCO[C@@H]1C[C@H](c2ccccc2)C=C(C(=O)N2CCOCC2)O1)NO | inactive: 0.998
COc1ccc(NC(=O)Nc2ccc3c(c2)C(=O)N([C@@H](C)CO)C[C@@H](C)[C@H](CN(C)C(=O)Nc2ccc(C(F)(F)F)cc2)OCCCC[C@H](C)O3)cc1 | inactive: 1.04
CO[C@@H]1CN(C)C(=O)c2cc(NS(C)(=O)=O)ccc2OC[C@@H](C)N(C(=O)c2ccc3c(c2)OCO3)C[C@H]1C | inactive: 0.986
C[C@H]1CCCCO[C@H](CN(C)S(=O)(=O)c2ccc(F)cc2)[C@@H](C)CN([C@@H](C)CO)C(=O)c2cc(NC(=O)Nc3ccc4c(c3)OCO4)ccc2O1 | inactive: 1.03
Cc1noc(C)c1NC(=O)N(C)C[C@H]1Oc2cc(C#CCN(C)C)ccc2S(=O)(=O)N([C@H](C)CO)C[C@@H]1C | inactive: 0.976
C[C@@H]1CN([C@@H](C)CO)C(=O)Cc2cc(NC(=O)Nc3cccc4ccccc34)ccc2O[C@@H]1CN(C)S(=O)(=O)c1cccs1 | inactive: 1.05
